Key:
[1] = Stability in vehicle buffer at 4° C. for 5 weeks, by lectin pathway IC50 of stored vs fresh samples; assay type: physicochemical; settings: stored at 4° C.; no significant difference of IC50 vs fresh sample
Procedure: For testing the stability of these four proteins, lyophilized samples from the same batch were compared. One sample was dissolved in 1.4% sodium bicarbonate buffer and stored at 4° C. for 5 weeks. The other aliquot sample was freshly dissolved into vehicle buffer. Lectin pathway inhibitory potency of these samples was assessed at the same time on the same plate as described in F.5.1.
Stability of EVO24L (SEQ ID NO: 114) was tested the same way by determining the IC50 values of a freshly prepared EVO24L samples and EVO24L samples stored at 4° C. for 5 weeks.

[2] = test system: complement lectin pathway; test: In vivo lectin pathway inhibition in rats, residual lectin pathway activity of serum samples ex vivo (C4b deposition); settings: rat, 4.5 μmol/kg slow iv bolus only
Procedure: Two such campaigns were conducted. In the first campaign EVO21 (SEQ ID NO: 12), EVO24 (SEQ ID NO: 15), EVO23 (SEQ ID NO: 3) and EVO214 (SEQ ID NO: 8) of the present invention were tested in comparison to EVO2 (SEQ ID NO: 2). In the second campaign, an Fc-fusion form of EVO24 referred to as EVO24L (SEQ ID NO: 114) was tested. The description below under F.9.1., details the general procedure with specific data corresponding to the first campaign. Specific differences in the second campaign are explained in section F.9.2.
Healthy male Wistar-Hanover rats (4 animals/test protein) were anesthetized by intraperitoneal (ip) injection of pentobarbital sodium and repeated doses to maintain anaesthesia. A heating pad assured maintenance of body temperature. The ECG of the animals (leads I-II-III) was monitored during the experiments. In the event of spontaneous breathing cessation or a significant reduction in heart rate or cardiac arrhythmias, the animals were intubated per os and connected to a rodent ventilator (Ugo Basile, Model 7025, Varese, Italy) for artificial ventilation at a rate and a stroke volume according to the manufacturer's recommendations. […]
Activity of the complement lectin pathway activity was assessed by activation of the serum samples on a mannan-coated surface and measurement of C4b deposition by ELISA measurement. […]

B1: EVO24L: chimeric protein containing EVO24 fused to an IgG1-type Fc domain that forms stable homodimers, non-glycosylated, produced in E. coli (protein)
chain: GSKPDFCFLENDPGPCRALKRRYFYNNQTKQCERFYYGGCLGNMNNFETLEECKNICEDGGTGGGSGSSSGS[human IgG1 Fc with changes omitted]
modifications: homodimer
Which results are given for B1?
stability in vehicle buffer [1]: at least 5 weeks; lectin pathway inhibition ([2]; 4-hour time point): about 95%; lectin pathway inhibition ([2]; 5 minutes): over 98%

From US20260098080A1, “A MODIFIED PROTEIN SCAFFOLD AND USE THEREOF” (EVOLVERITAS BIOTECHNOLÓGIAI KORLÁTOLT FELELOSSÉGU TÁRSASÁG, priority 2022, published 2026)
